Here are results for 153 variants from a collection of fitness landscapes (doi:10.1126/science.1257360).

This is one part of the list. Where only a bound is given, the exact number is not on record here.

The labels stand for the following.
B1: PhoQ; a variant is named by its letters at X, in order, P23837 (parent)
chain: MKKLLRLFFPLSLRVRFLLATAAVVLVLSLAYGMVALIGYSVSFDKTTFRLLRGESNLFYTLAKWENNKLHVELPENIDKQSPTMTLIYDENGQLLWAQRDVPWLMKMIQPDWLKSNGFHEIEADVNDTSLLLSGDHSIQQQLQEVREDDDDAEMTHSVAVNVYPATSRMPKLTIVVVDTIPVELKSSYMVWSWFIYVLSANLLLVIPLLWVAAWWSLRPIEALAKEVRELEEHNRELLNPATTRELTSLVRNLNRLLKSERERYDKYRTTLTDLTHSLKTPLXXLQXXLRSLRSEKMSVSDAEPVMLEQISRISQQIGYYLHRASMRGGTLLSRELHPVAPLLDNLTSALNKVYQRKGVNISLDISPEISFVGEQNDFVEVMGNVLDNACKYCLEFVEISARQTDEHLYIVVEDDGPGIPLSKREVIFDRGQRVDTLRPGQGVGLAVAREITEQYEGKIVAGESMLGGARMEVIFGRQHSAPKDE

In the test the parent is B1. Description: enrichment ratio after two sorts for PhoP signalling (ratio (wild type AVST 3.29)); higher = more functional. The conditions noted are these: with PhoP (E. coli).
Consider THRN, for which the enrichment ratio was ≤ 0.25.

For NVPV, the enrichment ratio is ≤ 0.25. On to HSWK, for which the enrichment ratio is ≤ 0.25.

For PPIK, the enrichment ratio is ≤ 0.25. As to FDVS, the enrichment ratio is ≤ 0.25. The same measure for QMRR: ≤ 0.25; for IVTG: ≤ 0.25; for MITD: ≤ 0.25. The figure for YQFN is ≤ 0.25. WFDE: the enrichment ratio was ≤ 0.25. On to QVIC, for which the enrichment ratio is ≤ 0.25. The figure for TSYR is 0.351; for AIIN it is 4.99. In the case of EGKC, the enrichment ratio was ≤ 0.25. For the variant HNGH, the enrichment ratio is ≤ 0.25. As to LSDH, the enrichment ratio is ≤ 0.25.

For PPEA, the enrichment ratio is ≤ 0.25.

As to RRFG, the enrichment ratio is ≤ 0.25. Take RKLP: the enrichment ratio was ≤ 0.25. For the variant SAKS, the enrichment ratio is ≤ 0.25. As to FQKY, the enrichment ratio is ≤ 0.25. For IHFF, the enrichment ratio is ≤ 0.25. Take AQWI: the enrichment ratio is ≤ 0.25. The figure for YKNH is ≤ 0.25. As for NWDK, the enrichment ratio is ≤ 0.25.

As to SDQY, the enrichment ratio was ≤ 0.25. Turning to PGLF, the enrichment ratio is ≤ 0.25. Consider RSRQ, for which the enrichment ratio was ≤ 0.25. For WRVQ, the enrichment ratio is ≤ 0.25.

With QDSH, the enrichment ratio was ≤ 0.25. With WKMA, the enrichment ratio was ≤ 0.25.

Regarding RMGD, the enrichment ratio was ≤ 0.25. In the case of WDYV, the enrichment ratio is ≤ 0.25.

On to TAQS, for which the enrichment ratio is 14.2. Take IQGV: the enrichment ratio was ≤ 0.25. As to QGYE, the enrichment ratio stood at 4.13. For SKEQ, the enrichment ratio was ≤ 0.25. On to VDMV, for which the enrichment ratio is ≤ 0.25. Turning to IFDA, the enrichment ratio was ≤ 0.25.

On to NYHT, for which the enrichment ratio was ≤ 0.25.

Consider QNTE, for which the enrichment ratio was ≤ 0.25. Take FKFH: the enrichment ratio is ≤ 0.25. Take TGCS: the enrichment ratio came to 13.

Regarding PFGS, the enrichment ratio was ≤ 0.25.

With HIAL, the enrichment ratio was ≤ 0.25. As for FMEK, the enrichment ratio was ≤ 0.25. As to SPVI, the enrichment ratio is ≤ 0.25. The same measure for VLTA: ≤ 0.25; for NFNY: ≤ 0.25. Regarding QRFH, the enrichment ratio was ≤ 0.25. Regarding ELTW, the enrichment ratio is ≤ 0.25. Regarding TKRC, the enrichment ratio was ≤ 0.25. Regarding FPYD, the enrichment ratio is ≤ 0.25.

With QLCT, the enrichment ratio was ≤ 0.25.

Turning to HWKW, the enrichment ratio was ≤ 0.25. The same measure for WQMV: ≤ 0.25.

Regarding GNTW, the enrichment ratio was ≤ 0.25. As for NFRD, the enrichment ratio was ≤ 0.25. The same measure for LPHK: ≤ 0.25; for VSMT: ≤ 0.25. The figure for VIID is ≤ 0.25; for MSAE it is ≤ 0.25. Regarding SCIK, the enrichment ratio was determined as 1.98.

For the variant RMHP, the enrichment ratio was ≤ 0.25.

In the case of WDTH, the enrichment ratio is ≤ 0.25. With DPKF, the enrichment ratio is ≤ 0.25. The same measure for VIRN: ≤ 0.25. In the case of LMYF, the enrichment ratio was ≤ 0.25. In the case of HMHY, the enrichment ratio was ≤ 0.25. QARP: the enrichment ratio was ≤ 0.25. As for NHYR, the enrichment ratio is ≤ 0.25. Consider GAMW, for which the enrichment ratio is ≤ 0.25.

GMYV: the enrichment ratio was ≤ 0.25. The figure for NQPR is ≤ 0.25. Take MELG: the enrichment ratio came out at 22.3. Consider AMDR, for which the enrichment ratio is ≤ 0.25. As for GKIV, the enrichment ratio amounted to 4.89.

On to LYQW, for which the enrichment ratio is ≤ 0.25.

On to EDSG, for which the enrichment ratio is ≤ 0.25.

Take WYPL: the enrichment ratio was ≤ 0.25. For the variant HWGM, the enrichment ratio was ≤ 0.25. The figure for RNWY is ≤ 0.25; for THRW it is ≤ 0.25.

Regarding NHES, the enrichment ratio is ≤ 0.25. As to GGVS, the enrichment ratio is ≤ 0.25. Regarding WSYK, the enrichment ratio is ≤ 0.25. For the variant WKLT, the enrichment ratio is ≤ 0.25. VWCG: the enrichment ratio is ≤ 0.25. In the case of HKPD, the enrichment ratio is ≤ 0.25. For the variant NYNS, the enrichment ratio is ≤ 0.25. As to AMVT, the enrichment ratio is ≤ 0.25. As for EIEV, the enrichment ratio is ≤ 0.25. DRIM: the enrichment ratio is ≤ 0.25. In the case of DPPW, the enrichment ratio was ≤ 0.25. For the variant MDDL, the enrichment ratio is ≤ 0.25.

With LDPS, the enrichment ratio was ≤ 0.25.

PNWG: the enrichment ratio was ≤ 0.25.

On to KGWF, for which the enrichment ratio is ≤ 0.25. As to HLDH, the enrichment ratio is ≤ 0.25. The same measure for RMPA: ≤ 0.25; for ICDF: ≤ 0.25; for IYSD: ≤ 0.25. Consider MRMR, for which the enrichment ratio was ≤ 0.25. The figure for TLQT is 8.12; for IHTH it is ≤ 0.25; for YKVC it is ≤ 0.25. The same measure for IHVC: ≤ 0.25; for TPLR: ≤ 0.25; for NRFE: ≤ 0.25.

As for PQNF, the enrichment ratio is ≤ 0.25. Consider GVKL, for which the enrichment ratio was ≤ 0.25. The same measure for PNMF: ≤ 0.25; for EGYD: ≤ 0.25. As to ETFG, the enrichment ratio is ≤ 0.25.

Regarding EFCI, the enrichment ratio was ≤ 0.25. The same measure for HTPV: ≤ 0.25; for NSRA: 0.539; for RQWA: ≤ 0.25. In the case of NMGQ, the enrichment ratio was ≤ 0.25.

For GDHN, the enrichment ratio was ≤ 0.25.

In the case of IHAQ, the enrichment ratio is ≤ 0.25.

For LGFA, the enrichment ratio was ≤ 0.25.

On to APCL, for which the enrichment ratio is ≤ 0.25. For the variant ESLL, the enrichment ratio was determined as 0.525. Regarding AQCP, the enrichment ratio was ≤ 0.25. Turning to IIYK, the enrichment ratio was ≤ 0.25. Turning to PARQ, the enrichment ratio was ≤ 0.25.

Regarding KLGM, the enrichment ratio was ≤ 0.25. Take NGEF: the enrichment ratio was ≤ 0.25. The figure for IKIN is ≤ 0.25; for DYVH it is ≤ 0.25; for GWEI it is ≤ 0.25. Consider HRMV, for which the enrichment ratio is ≤ 0.25. For the variant HKMS, the enrichment ratio is ≤ 0.25.

On to RPPC, for which the enrichment ratio is ≤ 0.25.

Turning to RVTY, the enrichment ratio was ≤ 0.25.

VLAR: the enrichment ratio was ≤ 0.25. Regarding RCLY, the enrichment ratio was ≤ 0.25.

In the case of AHHF, the enrichment ratio is ≤ 0.25. Take GKMY: the enrichment ratio was ≤ 0.25. As for PHPR, the enrichment ratio was ≤ 0.25. For the variant SSYF, the enrichment ratio came to 2.66. For MHTF, the enrichment ratio is ≤ 0.25.

For YYYY, the enrichment ratio was ≤ 0.25. Take QSYF: the enrichment ratio stood at 7.8. VWDC: the enrichment ratio is ≤ 0.25. Consider MHAE, for which the enrichment ratio is ≤ 0.25. The same measure for EILT: ≤ 0.25; for PLYF: ≤ 0.25; for WTIL: ≤ 0.25. In the case of AGWD, the enrichment ratio is ≤ 0.25.

On to PSHH, for which the enrichment ratio is ≤ 0.25.

Consider WRFM, for which the enrichment ratio is ≤ 0.25.
